According to the RNAGym collection of RNA variant scans (doi:10.7554/elife.90254):
The source gives no read counts; variants with many changes may rest on few reads.

B1: LINE1-full (parent)
chain: UACGUAGGUGGUUUUCCCCUGAUAGUGCUAAGGGGGCCUGGAAGUUUGGACUGGGCAGAGCUCAACACAGCGUGGCAAAGUGGCUGUGGCUAGACUGCCUCUCUGGAUUCCUCGUCACUCAGCAGGGCAUCUCUGAGAGAAAUGCC

Variants of: B1
Assay: self-cleavage, relative activity (ratio to wild type); higher = more cleavage; in vitro, sequencing; the parent is a self-cleaving ribozyme
Work on A57G A65G A77U A138G yielded a self-cleavage of 0.07. Work on A57G A65G A129G A142G yielded a self-cleavage of 0. For A57G A65G A141G, the self-cleavage was 0. In the case of A57G A65G C123U, the self-cleavage is reported as 0.05. Variant A57G A65G G80A has a self-cleavage of 0.14. In the case of A57G A65G U115C, the self-cleavage is reported as 0. A57G A65U U73A C76U U85A U132C showed a self-cleavage of 0.02. A57G A67U U87A showed a self-cleavage of 0.52. Variant A57G A67U U109C A121G has a self-cleavage of 0. With A57G A69U A77G U134G the self-cleavage was 0. Variant A57G A78C C95A U119C has a self-cleavage of 0.08. A57G A78G A140G gave a self-cleavage of 0.37. A57G A78G U81A U102A U119C G137A showed a self-cleavage of 0.26. For A57G A78G U100A, the self-cleavage was 0.77. Variant A57G A78G U134C has a self-cleavage of 0.59. A57G A92G A107G U115A gave a self-cleavage of 0. With A57G A92G U112C A117U the self-cleavage was 0. In the case of A57G A94G U143C, the self-cleavage is reported as 0. Variant A57G A107G G122A has a self-cleavage of 0.61. A57G A117G U134A A140G gave a self-cleavage of 0.18. Work on A57G A117U A141G yielded a self-cleavage of 0.56. Work on A57G A117U A142G yielded a self-cleavage of 1.04. Variant A57G A117U U134C has a self-cleavage of 1.91. With A57G A124G A136U A142G the self-cleavage was 1.46. A57G A124G C133U A141G showed a self-cleavage of 1.33. A57G A129G A141G showed a self-cleavage of 1.72. Variant A57G A140U U143C has a self-cleavage of 1.89. A57G C63A A64G gave a self-cleavage of 0. For A57G C63U A78G G126U, the self-cleavage was 0.22. Work on A57G C68U U73A U109C A124G A129U A140G yielded a self-cleavage of 0.04. A57G C68U U102C gave a self-cleavage of 0.05. With A57G C71U U87C the self-cleavage was 0.04. A57G C84U U100A showed a self-cleavage of 0.04. With A57G C95U C101G the self-cleavage was 0.09. A57G C113U A136G gave a self-cleavage of 0.92. A57G C118U A129G showed a self-cleavage of 0.9. In the case of A57G G58A A69G A77U U87A U119A A121G G125U, the self-cleavage is reported as 0.03. Work on A57G G70A U108C yielded a self-cleavage of 0.13. A57G G86A A94G U108C showed a self-cleavage of 0. With A57G G127A A138G the self-cleavage was 1.16. A57G G127A U134G showed a self-cleavage of 0.36. For A57G U62A A117G, the self-cleavage was 0. A57G U62C A79G A129G gave a self-cleavage of 0. A57G U62C A129G A141G U143C gave a self-cleavage of 0. For A57G U62C G105A, the self-cleavage was 0.03. For A57G U73A U100C U119C, the self-cleavage was 2.83. In the case of A57G U73A U102C A142G, the self-cleavage is reported as 0.59. Work on A57G U73C A129G A142G yielded a self-cleavage of 0. A57G U73C C103A gave a self-cleavage of 0. In the case of A57G U81C A94U U130A, the self-cleavage is reported as 0.22. With A57G U87A U96A A117U the self-cleavage was 0.04. A57G U87A U100C showed a self-cleavage of 0. Variant A57G U87C U115C G126A has a self-cleavage of 0. Work on A57G U91A A92G U96A yielded a self-cleavage of 0. With A57G U100C U112C A140G the self-cleavage was 1.41. Work on A57G U102C A141U yielded a self-cleavage of 0.63. Variant A57G U104C A138G has a self-cleavage of 1.35. A57G U108C U109A gave a self-cleavage of 1.02. In the case of A57G U109A A121U, the self-cleavage is reported as 0.61. A57G U109C A138G gave a self-cleavage of 0.21. Work on A57G U109C A142G yielded a self-cleavage of 0.44. Work on A57G U109C U115C yielded a self-cleavage of 0. With A57G U112C U119C the self-cleavage was 0. With A57G U115G U132C the self-cleavage was 0.68. Variant A57G U132C A142G has a self-cleavage of 0.59. A57G U132G A140U showed a self-cleavage of 1.47. Variant A57G U134G A141G has a self-cleavage of 1.84. Work on A57U A59G C90A U134C yielded a self-cleavage of 0.03. With A57U A64G U108A the self-cleavage was 0.07. With A57U A64U A79G A138G the self-cleavage was 0.1. For A57U A65G A121U, the self-cleavage was 0. In the case of A57U A67G A69G, the self-cleavage is reported as 0. A57U A67G A124G gave a self-cleavage of 0.14. In the case of A57U A67G A129U A140G, the self-cleavage is reported as 0.06. For A57U A69G U81C U96A C118A A138U, the self-cleavage was 0.22. A57U A69U A124U A138G showed a self-cleavage of 0. Work on A57U A69U G93A yielded a self-cleavage of 0.05. In the case of A57U A77G A124U, the self-cleavage is reported as 0.21. A57U A78G U134C showed a self-cleavage of 0.06. Work on A57U A79G U119C yielded a self-cleavage of 0.1. Variant A57U A79U A142G has a self-cleavage of 0.14. In the case of A57U A79U U104C, the self-cleavage is reported as 0.24. A57U A92C A94U A107G showed a self-cleavage of 0. For A57U A92G A107G U115A A129G, the self-cleavage was 0. Work on A57U A92G C101A U112A yielded a self-cleavage of 0.12. Variant A57U A94G U115C has a self-cleavage of 0. For A57U A141G U143C, the self-cleavage was 0.12. In the case of A57U C76U G89U, the self-cleavage is reported as 0.01. Work on A57U C99U U104A yielded a self-cleavage of 0.05. Work on A57U C110A U130A yielded a self-cleavage of 0.09. A57U G83A G93U C99A gave a self-cleavage of 0.02. Work on A57U G97A U132C U134C G144U yielded a self-cleavage of 0.02. A57U U62C U81G gave a self-cleavage of 0.05. A57U U73A G137A showed a self-cleavage of 0.05. Variant A57U U81A U91C has a self-cleavage of 0.09. Variant A57U U87A A94U has a self-cleavage of 0.03. Work on A57U U96A U109C yielded a self-cleavage of 0.27. Variant A57U U96A U115C A117U has a self-cleavage of 0.68. A57U U96C U104C A124G showed a self-cleavage of 0.18. A57U U100C U143A showed a self-cleavage of 0.22. A57U U109G A138G gave a self-cleavage of 0. For A57U U112A U143C, the self-cleavage was 0.11. In the case of G58A A59C A69G A121U, the self-cleavage is reported as 0.09. G58A A107G U108A C111U showed a self-cleavage of 0. In the case of G58A U62A A64C G86A A142G, the self-cleavage is reported as 0.01. In the case of G58A U73A G83A, the self-cleavage is reported as 0.02. G58A U87A G114A showed a self-cleavage of 0.1. In the case of G58A U102C A107U, the self-cleavage is reported as 0. G58U A65U C118A showed a self-cleavage of 0.08. For G58U A67G U132C, the self-cleavage was 0.03. With G58U A78U U85C the self-cleavage was 0.06. G58U A94U G135U showed a self-cleavage of 0.03. For G58U U62A U100C A117G U134C, the self-cleavage was 0.05. G58U U85C U109C gave a self-cleavage of 0.03. With A59C A107U A136U the self-cleavage was 1.39. A59C U62C A141G showed a self-cleavage of 0. Work on A59G A67G G93U A136G A142G yielded a self-cleavage of 0. In the case of A59G A67G U108C, the self-cleavage is reported as 0. A59G A69G A141G gave a self-cleavage of 0.12. With A59G A69U U87A C116A U119A A138G U143A the self-cleavage was 0.01. For A59G A77G U100C C146U, the self-cleavage was 0. Work on A59G A77U A92G yielded a self-cleavage of 0.07. A59G A77U A140G showed a self-cleavage of 0.07. A59G A77U G93U A129U A138G A140G showed a self-cleavage of 0.09. A59G A78U U119C gave a self-cleavage of 0.18. For A59G A79G C101A U104A U109C, the self-cleavage was 0.05. A59G A79G G82U G88C U102C U108C U119C gave a self-cleavage of 0. In the case of A59G A94G G139A, the self-cleavage is reported as 0.17. Work on A59G A107G U132C yielded a self-cleavage of 0.2. Variant A59G A121U A136U has a self-cleavage of 0.07. For A59G A140G A141G, the self-cleavage was 0.03. For A59G C61U A69U U115C, the self-cleavage was 0.06. Work on A59G C71G A94G U96A yielded a self-cleavage of 0.02. For A59G C76U A141G, the self-cleavage was 0.18. A59G C84U U115C showed a self-cleavage of 0.05. With A59G G72A U108C the self-cleavage was 0.06. With A59G G72U U85C A129G the self-cleavage was 0.11. In the case of A59G G80A U112C, the self-cleavage is reported as 0.12. With A59G G93U U109C the self-cleavage was 0.37. Work on A59G G114A U119A yielded a self-cleavage of 0.1. For A59G U62A A77U C111U, the self-cleavage was 0.04. With A59G U62C A78G the self-cleavage was 0.09. A59G U62C A107U U132A gave a self-cleavage of 0.05. A59G U62C U115C gave a self-cleavage of 0. With A59G U73A A79G C133U the self-cleavage was 0. In the case of A59G U81C C99U, the self-cleavage is reported as 0.09. With A59G U85A U108C A121G U130A the self-cleavage was 0.77. A59G U85C A140G gave a self-cleavage of 0.09. With A59G U85C U100C A140G the self-cleavage was 0. A59G U87A A129U A142G gave a self-cleavage of 0.05. In the case of A59G U87A U130C, the self-cleavage is reported as 0.1. For A59G U87G A141C, the self-cleavage was 0.22. For A59G U87G C98G A107G, the self-cleavage was 0.35. A59G U91A U132C showed a self-cleavage of 0.08. With A59G U100C A129G the self-cleavage was 0. Work on A59G U100C A138G yielded a self-cleavage of 0.19. A59G U100C C113U showed a self-cleavage of 0.07. Variant A59G U100C U115A has a self-cleavage of 0.16. Variant A59G U100C U130C A136U A138G has a self-cleavage of 0. In the case of A59G U102A A129G, the self-cleavage is reported as 0. A59G U102C A124U gave a self-cleavage of 0.09. Variant A59G U108A G127A has a self-cleavage of 0.12. A59G U109A A141G showed a self-cleavage of 0. A59G U119A A140C showed a self-cleavage of 0.15. A59G U130A A136G showed a self-cleavage of 0.26. For A59G U132C A140G, the self-cleavage was 0. Work on A59G U132C A141C yielded a self-cleavage of 0.
